One experiment has as its target T1, DYN-1::GFP (C. elegans) (UniProt P39055).
T1 sequence: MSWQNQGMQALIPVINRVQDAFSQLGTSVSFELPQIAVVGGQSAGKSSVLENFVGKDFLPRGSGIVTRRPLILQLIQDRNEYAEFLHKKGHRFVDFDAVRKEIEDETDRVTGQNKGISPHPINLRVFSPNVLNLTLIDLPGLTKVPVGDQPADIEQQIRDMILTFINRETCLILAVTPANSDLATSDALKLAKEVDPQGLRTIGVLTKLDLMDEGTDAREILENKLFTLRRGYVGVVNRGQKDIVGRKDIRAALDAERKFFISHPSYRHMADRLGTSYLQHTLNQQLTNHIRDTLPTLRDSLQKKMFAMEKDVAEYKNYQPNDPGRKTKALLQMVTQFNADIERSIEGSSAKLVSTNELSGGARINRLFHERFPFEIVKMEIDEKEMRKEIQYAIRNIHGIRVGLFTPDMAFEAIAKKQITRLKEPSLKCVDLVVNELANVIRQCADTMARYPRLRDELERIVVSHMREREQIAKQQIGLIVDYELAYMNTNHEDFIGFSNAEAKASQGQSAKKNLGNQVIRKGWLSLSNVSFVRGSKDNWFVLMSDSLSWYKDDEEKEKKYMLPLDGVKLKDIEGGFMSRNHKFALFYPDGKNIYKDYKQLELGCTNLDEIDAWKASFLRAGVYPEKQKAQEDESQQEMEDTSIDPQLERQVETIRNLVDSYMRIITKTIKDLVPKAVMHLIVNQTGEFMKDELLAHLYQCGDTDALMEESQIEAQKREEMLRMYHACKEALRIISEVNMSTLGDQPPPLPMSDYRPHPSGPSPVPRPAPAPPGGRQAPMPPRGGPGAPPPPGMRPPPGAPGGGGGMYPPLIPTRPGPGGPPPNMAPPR
The experiment is described as follows: co-IP; IP with GFP antibody from lysates of animals co-expressing an mCherry fusion and a GFP fusion (control: mCherry fusion alone); blots with mCherry and GFP antibodies.

Protein sequences, listed by entry. Tags and fused reporters are not part of them.
UniProt P34574: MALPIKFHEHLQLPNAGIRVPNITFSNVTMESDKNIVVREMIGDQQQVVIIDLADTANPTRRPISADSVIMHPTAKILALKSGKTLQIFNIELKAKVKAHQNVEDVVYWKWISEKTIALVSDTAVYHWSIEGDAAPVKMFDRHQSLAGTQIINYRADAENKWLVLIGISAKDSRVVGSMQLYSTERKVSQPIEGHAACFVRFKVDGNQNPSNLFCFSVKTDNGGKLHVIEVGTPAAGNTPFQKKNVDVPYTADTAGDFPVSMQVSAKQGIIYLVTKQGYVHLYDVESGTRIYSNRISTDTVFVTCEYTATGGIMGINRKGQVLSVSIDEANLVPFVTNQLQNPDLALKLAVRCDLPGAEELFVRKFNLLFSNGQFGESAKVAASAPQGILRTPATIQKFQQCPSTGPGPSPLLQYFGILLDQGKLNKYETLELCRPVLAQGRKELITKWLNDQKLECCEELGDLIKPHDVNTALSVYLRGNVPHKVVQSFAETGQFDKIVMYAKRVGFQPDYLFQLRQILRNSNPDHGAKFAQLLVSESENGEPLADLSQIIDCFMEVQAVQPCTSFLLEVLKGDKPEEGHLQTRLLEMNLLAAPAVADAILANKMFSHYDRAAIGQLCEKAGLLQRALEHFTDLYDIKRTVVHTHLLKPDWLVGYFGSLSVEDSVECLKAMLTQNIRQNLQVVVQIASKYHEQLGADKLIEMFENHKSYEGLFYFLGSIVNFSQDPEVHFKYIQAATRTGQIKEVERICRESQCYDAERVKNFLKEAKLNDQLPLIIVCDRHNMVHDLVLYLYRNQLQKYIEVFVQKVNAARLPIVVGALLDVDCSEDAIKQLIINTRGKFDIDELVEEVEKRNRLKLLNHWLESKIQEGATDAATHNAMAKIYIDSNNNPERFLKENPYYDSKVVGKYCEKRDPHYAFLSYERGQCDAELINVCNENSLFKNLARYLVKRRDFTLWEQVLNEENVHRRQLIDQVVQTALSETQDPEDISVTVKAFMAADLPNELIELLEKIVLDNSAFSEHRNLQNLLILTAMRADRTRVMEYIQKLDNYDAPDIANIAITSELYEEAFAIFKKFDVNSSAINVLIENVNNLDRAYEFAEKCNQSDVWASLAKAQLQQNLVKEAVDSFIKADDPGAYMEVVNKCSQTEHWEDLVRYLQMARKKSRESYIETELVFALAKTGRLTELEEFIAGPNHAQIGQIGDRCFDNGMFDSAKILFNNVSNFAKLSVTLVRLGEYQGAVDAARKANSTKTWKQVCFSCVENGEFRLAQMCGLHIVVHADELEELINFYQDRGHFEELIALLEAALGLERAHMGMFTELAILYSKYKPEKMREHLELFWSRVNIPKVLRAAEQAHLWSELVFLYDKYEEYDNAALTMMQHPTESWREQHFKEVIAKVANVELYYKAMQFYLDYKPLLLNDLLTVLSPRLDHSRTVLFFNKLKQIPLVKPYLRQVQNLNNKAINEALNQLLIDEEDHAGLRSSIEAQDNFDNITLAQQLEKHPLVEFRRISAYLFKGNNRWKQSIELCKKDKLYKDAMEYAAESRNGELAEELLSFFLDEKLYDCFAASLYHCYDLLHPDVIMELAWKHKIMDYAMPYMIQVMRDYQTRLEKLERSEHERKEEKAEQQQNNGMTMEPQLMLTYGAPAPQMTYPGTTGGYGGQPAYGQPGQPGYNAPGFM

Another experiment deals with T2, LST-4::GFP (C. elegans) (UniProt Q8I4E2).
T2 sequence: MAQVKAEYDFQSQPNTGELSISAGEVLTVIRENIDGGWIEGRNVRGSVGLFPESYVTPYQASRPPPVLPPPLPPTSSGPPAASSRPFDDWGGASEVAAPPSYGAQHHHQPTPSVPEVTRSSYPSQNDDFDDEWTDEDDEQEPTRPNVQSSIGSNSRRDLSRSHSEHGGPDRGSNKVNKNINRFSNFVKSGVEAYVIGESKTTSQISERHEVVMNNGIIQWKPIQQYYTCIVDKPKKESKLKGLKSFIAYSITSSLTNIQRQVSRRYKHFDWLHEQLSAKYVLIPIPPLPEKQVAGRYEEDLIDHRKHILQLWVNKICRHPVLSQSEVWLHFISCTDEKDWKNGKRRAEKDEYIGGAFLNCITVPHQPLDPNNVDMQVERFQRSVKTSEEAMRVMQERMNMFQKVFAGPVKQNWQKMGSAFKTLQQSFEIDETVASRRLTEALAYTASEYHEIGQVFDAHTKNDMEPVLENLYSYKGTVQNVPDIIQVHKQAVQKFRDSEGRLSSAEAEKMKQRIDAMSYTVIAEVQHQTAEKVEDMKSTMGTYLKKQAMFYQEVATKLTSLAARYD
The description is as above.

The target in experiment [1] is T3, LST-4::mCherry (C. elegans) (UniProt Q8I4E2).
T3 sequence: T2 sequence
The experiment is described as follows: co-IP; IP with mCherry antibody from lysates of animals expressing both LST-4::mCherry and DYN-1::GFP (control: DYN-1::GFP alone); blots with GFP and mCherry antibodies.

Experiment [2] concerns the target T4, endogenous CED-6 (C. elegans (endogenous in whole animal lysate)) (UniProt O76337).
T4 sequence: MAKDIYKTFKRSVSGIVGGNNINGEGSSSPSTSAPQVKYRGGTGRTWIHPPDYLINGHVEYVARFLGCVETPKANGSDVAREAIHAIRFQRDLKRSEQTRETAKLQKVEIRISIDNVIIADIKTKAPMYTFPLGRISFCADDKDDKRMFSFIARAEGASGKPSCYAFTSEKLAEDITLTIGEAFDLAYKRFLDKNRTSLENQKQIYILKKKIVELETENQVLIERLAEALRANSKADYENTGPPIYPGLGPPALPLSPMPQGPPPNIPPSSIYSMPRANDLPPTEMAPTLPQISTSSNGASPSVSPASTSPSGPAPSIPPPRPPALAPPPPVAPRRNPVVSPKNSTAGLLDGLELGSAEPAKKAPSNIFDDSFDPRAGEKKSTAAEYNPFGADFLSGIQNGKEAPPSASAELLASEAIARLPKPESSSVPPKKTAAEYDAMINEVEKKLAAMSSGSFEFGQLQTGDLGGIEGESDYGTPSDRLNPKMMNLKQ
Kind of experiment: co-IP; IP of endogenous CED-1 or CED-6 with CED-1C or CED-6 antibody from whole cell lysates of N2 or GFP-fusion-expressing animals (controls: ced-1(e1735), ced-1 RNAi, ced-6 RNAi); blots with CED-1C, CED-6 and GFP antibodies.

The target of experiment [3] is T5, GST-fused intracellular region of CED-1 (CED-1C, amino acids 933–1111) (C. elegans) (UniProt Q9XWD6).
T5 sequence: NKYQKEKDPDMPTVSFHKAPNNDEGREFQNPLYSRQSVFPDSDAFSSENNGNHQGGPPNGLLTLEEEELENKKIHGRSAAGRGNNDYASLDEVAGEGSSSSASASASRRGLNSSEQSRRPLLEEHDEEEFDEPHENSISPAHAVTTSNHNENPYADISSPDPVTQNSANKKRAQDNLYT
The experiment is described as follows: pull-down; GST or GST fusion (3 µg) immobilized on glutathione-Sepharose beads, incubated with purified His6-tagged protein at 4°C for ≥4 h, washed extensively; immunoblot with anti-His6 antibody; both purified. On the technique in general: A western blot detects proteins with antibodies after separation by electrophoresis.

Experiment [4] has as its target T6, GST-fused CED-6 (C. elegans) (UniProt O76337).
T6 sequence: T4 sequence
The description is as above.

The target of experiment [5] is T7, GST-fused DYN-1 (C. elegans) (UniProt P39055).
T7 sequence: T1 sequence
The experiment is described as above.

Results are given in words; binding and its absence hold for the method and conditions named. For part of these data: Binding seen in cells or lysates may run through a third protein. Some binding calls cover weakened binding; strength is not graded here. Where a sequence is shown, tags or fusion partners need not be part of it.

With “mCherry::CHC-1 (from UniProt P34574 1-1681)”, the binding result in the experiment with DYN-1::GFP (C. elegans) and in the experiment with LST-4::GFP (C. elegans) was “binds” in each case.

B1: DYN-1::GFP (protein, UniProt P39055 1-830)
chain: T1 sequence
Turning to B1, the binding result in experiment [1] was “binds”; in experiment [2] it was “no binding”.

B2: DYN-1His6 (protein, UniProt P39055 1-830)
chain: T1 sequence
As to B2, the binding entry in experiment [3] and in experiment [4] was “no binding” each time.

B3: His6-tagged recombinant LST-4 (protein, UniProt Q8I4E2 1-566)
chain: T2 sequence
With B3, the binding result was “binds” in experiment [5], “no binding” in experiment [3] and “no binding” in experiment [4].

The values are drawn from publication PMC3656144.
